The text below walks through data of the GPR68 mutational scans of Howard et al. (2025).

To fix the notation:
B1: GPR68, Q15743 (parent)
chain: MGNITADNSSMSCTIDHTIHQTLAPVVYVTVLVVGFPANCLSLYFGYLQIKARNELGVYLCNLTVADLFYICSLPFWLQYVLQHDNWSHGDLSCQVCGILLYENIYISVGFLCCISVDRYLAVAHPFRFHQFRTLKAAVGVSVVIWAKELLTSIYFLMHEEVIEDENQHRVCFEHYPIQAWQRAINYYRFLVGFLFPICLLLASYQGILRAVRRSHGTQKSRKDQIQRLVLSTVVIFLACFLPYHVLLLVRSVWEASCDFAKGVFNAYHFSLLLTSFNCVADPVLYCFVSETTHRDLARLRGACLAFLTCSRTGRAREAYPLGAPEASGKSGAQGEEPELLTKLHPAFQTPNSPGSGGFPTGRLA

In data set [1] the parent is B1. Put plainly: cAMP reporter score (Enrich2 score, wild type = 0); higher = more signal; HEK293T, FACS bins.
In data set [2] the parent is B1. Put plainly: surface expression score (Enrich2 score, wild type = 0); higher = more signal; HEK293T, FACS bins.

Scores with a large standard error are left out. The source holds two more conditions with little spread; they are left out. In variant names, del marks residues removed and ins residues inserted between the two positions. For some of these results: The data file names ogerin without a concentration.

Regarding MGNITADNSSMSCTIDHTIHQTLAPVVYVTVLVVGFPANCLSLYFGYLQIKARNELGVYLCNLTVADLFYICSLPFWLQYVLQHDNWSHGDLSCQVCGILLYENIYISVGFLCCISVDRYLAVAHPFRFHQFRTLKAAVGVSVVIWAKELLTSIYFLMHEEVIEDENQHRVCFEHYPIQAWQRAINYYRFLVGDLFPICLLLASYQGILRAVRRSHGTQKSRKDQIQRLVLSTVVIFLACFLPYHVLLLVRSVWEASCDFAKGVFNAYHFSLLLTSFNCVADPVLYCFVSETTHRDLARLRGACLAFLTCSRTGRAREAYPLGAPEASGKSGAQGEEPELLTKLHPAFQTPNSPGSGGFPTGRLA [F194D], the cAMP reporter score was -0.482 in data set [1] (pH 5.5); -0.83 in data set [1] (pH 6, modulator: ogerin); -0.423 in data set [1] (pH 6.5, modulator: ogerin). Further, in data set [2], the surface expression score is -0.42.

With MGNITADNSSMSCTIDHTIHQTLAPVVYVTVLVVGFPANCLSLYFGYLQIKARNELGVYLCNLTVADLFYICSLPFWLQYVLQHDNWSHGDLSCQVCGILLYENIYISVGFLCCISVDRYLAVAHPFRFHQFRTLKAAVGVSVVIWAKELLTSIYFLMHEEVIEDENQHRVCFEHYPIQAWQRAINYYRFLVGELFPICLLLASYQGILRAVRRSHGTQKSRKDQIQRLVLSTVVIFLACFLPYHVLLLVRSVWEASCDFAKGVFNAYHFSLLLTSFNCVADPVLYCFVSETTHRDLARLRGACLAFLTCSRTGRAREAYPLGAPEASGKSGAQGEEPELLTKLHPAFQTPNSPGSGGFPTGRLA [F194E], the cAMP reporter score in data set [1] (pH 5.5) is -0.522; in data set [1] (pH 6, modulator: ogerin), -0.702; in data set [1] (pH 6.5, modulator: ogerin), -0.681. Besides, in data set [2], the surface expression score was -2.35.

MGNITADNSSMSCTIDHTIHQTLAPVVYVTVLVVGFPANCLSLYFGYLQIKARNELGVYLCNLTVADLFYICSLPFWLQYVLQHDNWSHGDLSCQVCGILLYENIYISVGFLCCISVDRYLAVAHPFRFHQFRTLKAAVGVSVVIWAKELLTSIYFLMHEEVIEDENQHRVCFEHYPIQAWQRAINYYRFLVGGLFPICLLLASYQGILRAVRRSHGTQKSRKDQIQRLVLSTVVIFLACFLPYHVLLLVRSVWEASCDFAKGVFNAYHFSLLLTSFNCVADPVLYCFVSETTHRDLARLRGACLAFLTCSRTGRAREAYPLGAPEASGKSGAQGEEPELLTKLHPAFQTPNSPGSGGFPTGRLA [F194G]: the cAMP reporter score in data set [1] (pH 5.5) is -0.999; in data set [1] (pH 6), -0.731; in data set [1] (pH 6, modulator: ogerin) it was -1.21; in data set [1] (pH 6.5, modulator: ogerin), -1.4. In addition, in data set [2], the surface expression score is -1.44.
